# From the supplement of paper PMC11876631
# ± gives the standard deviation of the averaged measurements. Laboratory Escherichia coli strains with one amino-acid change in an essential protein, pooled on minimal glucose agar with carbenicillin or gentamicin at twice the control MIC (plus kanamycin and chloramphenicol for the plasmids), 48 h. Fold change of barcode share against drug-free plates; higher = less susceptible. Active = above 20 in both replicates (the paper's putatively resistant). '<' = one read or none on drug, '>' = one read or none on a drug-free plate. Shares are relative, so most strains fall below 1 when a few take over. Listed are strains with at least 15 reads on both drug-free plates, and hits; most hits rest on fewer reference reads. Replicate rank correlation about 0.5. Edits are read from barcodes.
# B1: ilvE L292A (protein)
# chain: MTTKKADYIWFNGEMVRWEDAKVHVMSHALHYGTSVFEGIRCYDSHKGPVVFRHREHMQRLHDSAKIYRFPVSQSIDELMEACRDVIRKNNLTSAYIRPLIFVGDVGMGVNPPAGYSTDVIIAAFPWGAYLGAEALEQGIDAMVSSWNRAAPNTIPTAAKAGGNYLSSLLVGSEARRHGYQEGIALDVNGYISEGAGENLFEVKDGVLFTPPFTSSALPGITRDAIIKLAKELGIEVREQVLSRESLYLADEVFMSGTAAEITPVRSVDGIQVGEGRCGPVTKRIQQAFFGAFTGETEDKWGWLDQVNQ
# B2: ilvE L292W (protein)
# chain: MTTKKADYIWFNGEMVRWEDAKVHVMSHALHYGTSVFEGIRCYDSHKGPVVFRHREHMQRLHDSAKIYRFPVSQSIDELMEACRDVIRKNNLTSAYIRPLIFVGDVGMGVNPPAGYSTDVIIAAFPWGAYLGAEALEQGIDAMVSSWNRAAPNTIPTAAKAGGNYLSSLLVGSEARRHGYQEGIALDVNGYISEGAGENLFEVKDGVLFTPPFTSSALPGITRDAIIKLAKELGIEVREQVLSRESLYLADEVFMSGTAAEITPVRSVDGIQVGEGRCGPVTKRIQQAFFGWFTGETEDKWGWLDQVNQ
# B3: ilvE L292Q (protein)
# chain: MTTKKADYIWFNGEMVRWEDAKVHVMSHALHYGTSVFEGIRCYDSHKGPVVFRHREHMQRLHDSAKIYRFPVSQSIDELMEACRDVIRKNNLTSAYIRPLIFVGDVGMGVNPPAGYSTDVIIAAFPWGAYLGAEALEQGIDAMVSSWNRAAPNTIPTAAKAGGNYLSSLLVGSEARRHGYQEGIALDVNGYISEGAGENLFEVKDGVLFTPPFTSSALPGITRDAIIKLAKELGIEVREQVLSRESLYLADEVFMSGTAAEITPVRSVDGIQVGEGRCGPVTKRIQQAFFGQFTGETEDKWGWLDQVNQ
# B4: ilvE I40A (protein)
# chain: MTTKKADYIWFNGEMVRWEDAKVHVMSHALHYGTSVFEGARCYDSHKGPVVFRHREHMQRLHDSAKIYRFPVSQSIDELMEACRDVIRKNNLTSAYIRPLIFVGDVGMGVNPPAGYSTDVIIAAFPWGAYLGAEALEQGIDAMVSSWNRAAPNTIPTAAKAGGNYLSSLLVGSEARRHGYQEGIALDVNGYISEGAGENLFEVKDGVLFTPPFTSSALPGITRDAIIKLAKELGIEVREQVLSRESLYLADEVFMSGTAAEITPVRSVDGIQVGEGRCGPVTKRIQQAFFGLFTGETEDKWGWLDQVNQ
# B5: ilvE I40Q (protein)
# chain: MTTKKADYIWFNGEMVRWEDAKVHVMSHALHYGTSVFEGQRCYDSHKGPVVFRHREHMQRLHDSAKIYRFPVSQSIDELMEACRDVIRKNNLTSAYIRPLIFVGDVGMGVNPPAGYSTDVIIAAFPWGAYLGAEALEQGIDAMVSSWNRAAPNTIPTAAKAGGNYLSSLLVGSEARRHGYQEGIALDVNGYISEGAGENLFEVKDGVLFTPPFTSSALPGITRDAIIKLAKELGIEVREQVLSRESLYLADEVFMSGTAAEITPVRSVDGIQVGEGRCGPVTKRIQQAFFGLFTGETEDKWGWLDQVNQ
# B6: infB V744A (protein)
# chain: MTDVTIKTLAAERQTSVERLVQQFADAGIRKSADDSVSAQEKQTLIDHLNQKNSGPDKLTLQRKTRSTLNIPGTGGKSKSVQIEVRKKRTFVKRDPQEAERLAAEEQAQREAEEQARREAEESAKREAQQKAEREAAEQAKREAAEQAKREAAEKDKVSNQQDDMTKNAQAEKARREQEAAELKRKAEEEARRKLEEEARRVAEEARRMAEENKWTDNAEPTEDSSDYHVTTSQHARQAEDESDREVEGGRGRGRNAKAARPKKGNKHAESKADREEARAAVRGGKGGKRKGSSLQQGFQKPAQAVNRDVVIGETITVGELANKMAVKGSQVIKAMMKLGAMATINQVIDQETAQLVAEEMGHKVILRRENELEEAVMSDRDTGAAAEPRAPVVTIMGHVDHGKTSLLDYIRSTKVASGEAGGITQHIGAYHVETENGMITFLDTPGHAAFTSMRARGAQATDIVVLVVAADDGVMPQTIEAIQHAKAAQVPVVVAVNKIDKPEADPDRVKNELSQYGILPEEWGGESQFVHVSAKAGTGIDELLDAILLQAEVLELKAVRKGMASGAVIESFLDKGRGPVATVLVREGTLHKGDIVLCGFEYGRVRAMRNELGQEVLEAGPSIPVEILGLSGVPAAGDEVTVVRDEKKAREVALYRQGKFREVKLARQQKSKLENMFANMTEGEVHEVNIVLKADVQGSVEAISDSLLKLSTDEVKVKIIGSGVGGITETDATLAAASNAILAGFNVRADASARKVIEAESLDLRYYSVIYNLIDEVKAAMSGMLSPELKQQIIGLAEVRDVFKSPKFGAIAGCMVTEGVVKRHNPIRVLRDNVVIYEGELESLRRFKDDVNEVRNGMECGIGVKNYNDVRTGDVIEVFEIIEIQRTIA
# Target: Escherichia coli (laboratory strain)
# Assay: barcode share on antibiotic plates over drug-free plates; higher = less susceptible
# Settings: antibiotic: carbenicillin; 2× MIC (3.1 µg/mL)
# Procedure: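 A pool of E. coli strains, each edited to carry one amino-acid change in an essential protein, was grown for 48 h on minimal glucose agar with or without antibiotic; strain barcodes were sequenced; mean of two replicates.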
row,Protein,fold change of barcode share
1,B1,> 22.1 [active]
2,B2,1.09 ± 0.38
3,B3,0.467 ± 0.027
4,B4,0.378 ± 0.07
5,B5,0.503 ± 0.37
6,B6,0.326 ± 0.21

# Same assay, conditions: antibiotic: gentamicin; 2× MIC (MIC 0.45 µg/mL)
row,Protein,fold change of barcode share
1,B2,0.0201 ± 0.0038
2,B4,< 0.00453
3,B5,0.011 ± 0.009
4,B6,0.012 ± 0.0075
